About 14,000 (4.5%) of roughly 310,000 compounds showed an effect of 50% or more. Effects have a minus sign here. This is one part of the list.
The compounds below were run against human ether-à-go-go-related gene (hERG) potassium channel (human, UniProt Q12809) (assay: primary screen, population patch clamp on CHO cells stably expressing hERG).
Chain of human ether-à-go-go-related gene (hERG) potassium channel (Q12809 whole entry, looked up): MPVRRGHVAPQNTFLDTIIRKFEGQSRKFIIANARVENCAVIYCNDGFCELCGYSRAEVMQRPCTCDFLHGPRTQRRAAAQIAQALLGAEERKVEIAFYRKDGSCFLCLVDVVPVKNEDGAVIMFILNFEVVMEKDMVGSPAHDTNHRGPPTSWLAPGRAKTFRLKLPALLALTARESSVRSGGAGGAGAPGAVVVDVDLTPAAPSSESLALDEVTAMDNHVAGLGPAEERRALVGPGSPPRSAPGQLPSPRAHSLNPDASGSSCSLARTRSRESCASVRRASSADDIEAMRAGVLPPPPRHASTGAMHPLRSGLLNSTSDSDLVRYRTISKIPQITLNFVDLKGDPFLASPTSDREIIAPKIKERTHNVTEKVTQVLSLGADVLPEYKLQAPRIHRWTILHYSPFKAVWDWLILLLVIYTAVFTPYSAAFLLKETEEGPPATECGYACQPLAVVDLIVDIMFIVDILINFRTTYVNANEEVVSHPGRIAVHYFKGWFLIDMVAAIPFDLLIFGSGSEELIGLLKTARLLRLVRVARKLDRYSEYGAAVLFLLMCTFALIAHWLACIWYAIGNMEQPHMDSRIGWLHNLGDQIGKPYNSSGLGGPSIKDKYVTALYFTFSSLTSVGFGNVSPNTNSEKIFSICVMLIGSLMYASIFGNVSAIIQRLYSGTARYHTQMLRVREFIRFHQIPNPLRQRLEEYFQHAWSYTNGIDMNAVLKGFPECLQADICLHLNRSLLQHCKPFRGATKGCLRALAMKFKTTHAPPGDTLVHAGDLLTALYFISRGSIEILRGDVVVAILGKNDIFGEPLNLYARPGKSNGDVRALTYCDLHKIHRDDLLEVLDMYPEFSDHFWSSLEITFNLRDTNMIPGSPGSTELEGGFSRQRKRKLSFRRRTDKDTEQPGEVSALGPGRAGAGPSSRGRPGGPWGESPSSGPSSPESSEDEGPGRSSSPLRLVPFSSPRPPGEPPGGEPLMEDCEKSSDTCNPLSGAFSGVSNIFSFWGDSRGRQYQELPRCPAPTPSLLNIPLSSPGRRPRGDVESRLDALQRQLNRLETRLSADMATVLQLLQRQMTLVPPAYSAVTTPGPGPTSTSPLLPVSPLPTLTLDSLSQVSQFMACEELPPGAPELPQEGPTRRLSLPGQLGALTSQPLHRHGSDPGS
`CC1Cc2cc(S(=O)(=O)N3CCCC(C(=O)N4CCCCC4)C3)ccc2N1C(=O)C1CC1` (stereo not drawn) was tested, and the “hERG current change (%, negative = inhibition) at 10uM” value was -4.84%.
For `O=C(NCC(O)c1ccc([N+](=O)[O-])cc1)C1CCCCC1` (stereo not drawn), the “hERG current change (%, negative = inhibition) at 10uM” value was 7.94%.
For `O=C(NOC(=O)c1cc(Br)ccc1Cl)c1cccs1`, the “hERG current change (%, negative = inhibition) at 10uM” value was 6.33%.
With `COc1ccc(C)cc1S(=O)(=O)Nc1ccncc1` the “hERG current change (%, negative = inhibition) at 10uM” value was 3.79%.
With `CC(C)C(NC(=O)c1ccc([N+](=O)[O-])cc1Cl)C(=O)N1CCCC1` (stereo not drawn) the “hERG current change (%, negative = inhibition) at 10uM” value was -4.21%.
For `Cc1cccc(N2CCN(C(=S)c3ccc(-c4ccccc4[N+](=O)[O-])o3)CC2)c1`, the “hERG current change (%, negative = inhibition) at 10uM” value was 13.3%.
`O=C(O)c1ccccc1C(=O)Nc1nccs1` was tested, and the “hERG current change (%, negative = inhibition) at 10uM” value was 4.17%.
With `CC(C)C(OC(=O)c1cc2sccc2n1C)C(=O)NCC1CCCO1` (stereo not drawn) the “hERG current change (%, negative = inhibition) at 10uM” value was -7.71%.
With `Cc1ccc(NC(=O)C2CC=CCC2C(=O)N2CCCCC2)cc1` (stereo not drawn) the “hERG current change (%, negative = inhibition) at 10uM” value was -8.01%.
With `Cc1ccc(C2C3=C(CC(C)(C)CC3=O)Nc3onc(C)c32)cc1` (stereo not drawn) the “hERG current change (%, negative = inhibition) at 10uM” value was -9.98%.
In the case of `COc1ccc(C(=O)Nc2cccc3nc(C)ccc23)c(OC)c1`, the “hERG current change (%, negative = inhibition) at 10uM” value is reported as -0.00572%.
With `CCn1c(SCC(=O)Nc2cccc(C)c2)nc2c(c1=O)SC(C)C2` (stereo not drawn) the “hERG current change (%, negative = inhibition) at 10uM” value was -25.1%.
`Cn1c(CNc2cccc(Cl)c2)nnc1SCC(=O)OC1CCCCC1` was tested, and the “hERG current change (%, negative = inhibition) at 10uM” value was -34.1%.
In the case of `Cc1oc2c(c1C(=O)NCc1ccccc1)CCCC2`, the “hERG current change (%, negative = inhibition) at 10uM” value is reported as 3.76%.
With `CCCC12CN3CCN(CC(C3)/C1=N\NC(=O)c1ccccc1N)C2` the “hERG current change (%, negative = inhibition) at 10uM” value was -4.19%.
With `CC(C)(C)OC(=O)n1cc(C(=O)c2ccccc2O)cn1` the “hERG current change (%, negative = inhibition) at 10uM” value was 6.6%.
For `CCc1ccc(N2C(=O)NC(=O)/C(=C\c3cccn3CCOc3ccc(C(C)C)cc3)C2=O)cc1`, the “hERG current change (%, negative = inhibition) at 10uM” value was 9.69%.
For `COc1ccc(NC(=S)N2CCN(C/C=C/c3ccccc3)CC2)cc1OC`, the “hERG current change (%, negative = inhibition) at 10uM” value was -19.4%.
In the case of `N#Cc1ccccc1NC(=O)CN1CCN(Cc2ccccc2)CC1`, the “hERG current change (%, negative = inhibition) at 10uM” value is reported as -60.1%.
For `Cc1cccc(C(=O)Nc2nnc(-c3ccco3)o2)c1`, the “hERG current change (%, negative = inhibition) at 10uM” value was 5.64%.
`CN(C)CCn1cnc2c1c(=O)[nH]c(=O)n2Cc1ccccc1.Cl` was tested, and the “hERG current change (%, negative = inhibition) at 10uM” value was 27.6%.
`Cc1ccc2nc(NC(=O)[C@H](C)N3C(=O)C4CC=CCC4C3=O)sc2c1` (stereo partly drawn) was tested, and the “hERG current change (%, negative = inhibition) at 10uM” value was 9.6%.
With `CC(=O)Nc1ccc2c(c1)OCO2` the “hERG current change (%, negative = inhibition) at 10uM” value was 15.8%.
With `Oc1ccc(Br)cc1C1Nc2ccccc2S1` (stereo not drawn) the “hERG current change (%, negative = inhibition) at 10uM” value was 21.7%.
For `CSc1nc(C)c2c(n1)N(c1ccc(F)cc1)CC2`, the “hERG current change (%, negative = inhibition) at 10uM” value was 19.8%.
With `Cc1cccc(Cc2nnc(CCC(=O)NCc3ccncc3C)o2)c1` the “hERG current change (%, negative = inhibition) at 10uM” value was 1.49%.
In the case of `CS(=O)(=O)N1CCc2cc(C(=O)N3CCCC3)ccc21`, the “hERG current change (%, negative = inhibition) at 10uM” value is reported as 11.7%.
With `COc1ccc2c(c1)c(C(=O)N/N=C/c1cccs1)c(C)n2C` the “hERG current change (%, negative = inhibition) at 10uM” value was -9.05%.
With `O=C(CO/N=C/c1ccccc1O)NNC(=O)c1ccccc1Cl` the “hERG current change (%, negative = inhibition) at 10uM” value was 12.3%.
In the case of `Cn1c(=O)c2cnc(-c3ccc(C(F)(F)F)cc3)nc2n(C)c1=O`, the “hERG current change (%, negative = inhibition) at 10uM” value is reported as 25.7%.
In the case of `COc1ccc(NC(=O)C(C)N(C)Cc2ccc3ccccc3c2)cc1` (stereo not drawn), the “hERG current change (%, negative = inhibition) at 10uM” value is reported as -25%.
`CCc1ccc(-c2nc(CS(=O)CC(=O)O)c(C)o2)cc1` (stereo not drawn) was tested, and the “hERG current change (%, negative = inhibition) at 10uM” value was -8.03%.
`Cc1cccc(N2CCN(C(=O)c3ccnn3C)CC2)c1C` was tested, and the “hERG current change (%, negative = inhibition) at 10uM” value was 7.15%.
`NC(=O)NC(=O)COC(=O)CNS(=O)(=O)c1ccc(F)c(F)c1F` was tested, and the “hERG current change (%, negative = inhibition) at 10uM” value was 13.3%.
For `CC(=O)NS(=O)(=O)c1ccc(NC(=O)c2cc3c(=O)n4ccccc4nc3s2)cc1`, the “hERG current change (%, negative = inhibition) at 10uM” value was -1.79%.
In the case of `O=C(CCN1C(=O)/C(=C/c2ccc(F)cc2)SC1=S)NNC(=O)c1ccncc1`, the “hERG current change (%, negative = inhibition) at 10uM” value is reported as 19.6%.
`O=C(C[n+]1ccccc1)Nc1ccccc1C(=O)O.[Cl-]` was tested, and the “hERG current change (%, negative = inhibition) at 10uM” value was 0.4%.
In the case of `C/C(=N\NC(=O)c1ccc(Cl)cc1)c1ccccn1`, the “hERG current change (%, negative = inhibition) at 10uM” value is reported as 2.27%.
`CCc1cc(=O)oc2cc(C)cc(OCC(=O)NCCN3CCOCC3)c12` was tested, and the “hERG current change (%, negative = inhibition) at 10uM” value was 12.3%.
In the case of `Cc1ccc(Nc2nc(Oc3ccc(=O)[nH]n3)nc(N(C)C)n2)cc1`, the “hERG current change (%, negative = inhibition) at 10uM” value is reported as -6.87%.
`O=C(O)c1cccc(S(=O)(=O)N2CC=C(c3ccccc3)CC2)c1` was tested, and the “hERG current change (%, negative = inhibition) at 10uM” value was -4.64%.
For `COc1ccc(CCN(C)C(=O)CNC(=O)Cc2cccc3ccccc23)cc1OC`, the “hERG current change (%, negative = inhibition) at 10uM” value was -1.9%.
With `N#C/C(=C\c1cccnc1)C(=O)NC1CCCCC1` the “hERG current change (%, negative = inhibition) at 10uM” value was 1.59%.
In the case of `O=S(=O)(c1cccs1)n1nnc2ccccc21`, the “hERG current change (%, negative = inhibition) at 10uM” value is reported as 19.3%.
In the case of `Cc1c(N=Cc2ccc(-c3ccc(Cl)cc3)o2)c(=O)n(-c2ccccc2)n1C`, the “hERG current change (%, negative = inhibition) at 10uM” value is reported as -15.3%.
In the case of `CCC1CCCCN1C(=O)COc1ccc(N(C)S(=O)(=O)c2ccc(C)cc2)cc1` (stereo not drawn), the “hERG current change (%, negative = inhibition) at 10uM” value is reported as -40.3%.
`O=C(CSc1nc(-c2ccccc2)cs1)N1CCc2ccccc21` was tested, and the “hERG current change (%, negative = inhibition) at 10uM” value was 3.61%.
`COc1ccc(Nc2oc(-c3ccccc3)nc2C#N)cc1` was tested, and the “hERG current change (%, negative = inhibition) at 10uM” value was 18.1%.
With `Cc1cc(C)cc(N(C(=O)Cc2cccs2)C(C(=O)NC2CCCC2)c2ccc(C)o2)c1` (stereo not drawn) the “hERG current change (%, negative = inhibition) at 10uM” value was 2.77%.
With `COc1ccc(CCNC(=O)CN(C)S(=O)(=O)c2ccc3c(c2)CCC(=O)N3)cc1OC` the “hERG current change (%, negative = inhibition) at 10uM” value was 1.09%.
`COc1cc(/C=C2\SC(=S)N(N3CCOCC3)C2=O)cc(OC)c1OC` was tested, and the “hERG current change (%, negative = inhibition) at 10uM” value was 3.1%.
With `CC1(C)C(CO)=CC(=O)C2=C1SCC(=O)N2` the “hERG current change (%, negative = inhibition) at 10uM” value was -16.3%.
In the case of `COc1ccc(OC)c(NC(=O)C2CCCN(S(=O)(=O)c3cccc4cccnc34)C2)c1` (stereo not drawn), the “hERG current change (%, negative = inhibition) at 10uM” value is reported as -4.01%.
In the case of `COc1ccccc1C1NC(=O)NC(C)=C1C(=O)Nc1cccc(C)c1C` (stereo not drawn), the “hERG current change (%, negative = inhibition) at 10uM” value is reported as 20.2%.
`O=C(COC(=O)C1CCN(S(=O)(=O)c2ccccc2C(F)(F)F)CC1)NCc1ccc(F)cc1` was tested, and the “hERG current change (%, negative = inhibition) at 10uM” value was -8.33%.
With `COc1cccc(CN2CCN(C3CCN(c4ccccc4C)CC3)CC2CCO)c1` (stereo not drawn) the “hERG current change (%, negative = inhibition) at 10uM” value was -66.2%.
With `COc1ccc2ccccc2c1/C=N/NC(=O)c1ccccc1F` the “hERG current change (%, negative = inhibition) at 10uM” value was -20.3%.

Reference: publication PMC4336329 (PLoS ONE, 2015)
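Also: peak tail current of the secondary pulse compared with the same well before compound.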
